Results: patent publication US20260216362A1, “ANTI-BDCA2 ANTIBODY-DRUG CONJUGATE AND USE THEREOF” (DUALITY BIOLOGICS (SHANGHAI) CO., LTD., priority 2022, published 2026)

How the values were obtained:
[1] = system: pDCs in the peripheral blood of cynomolgus monkeys; assay: pDC percentage and BDCA2 expression level on pDCs in peripheral blood of dosed cynomolgus monkeys by FACS; settings: 10 mg/kg intravenous
[2] = system: human peripheral blood mononuclear cells; assay: Inhibition of R848-induced TNF-α production from human peripheral blood mononuclear cells by BDCA2-ADC; assay type: cell-based; settings: 5 μM R848, 24 h
Experimental: The inhibitory effects of the antibody-drug conjugate molecules of the present application on the production from peripheral blood mononuclear cells were detected. Peripheral blood mononuclear cells produce a large number of cytokines after the stimulation of the TLR7/8 agonist R848. The peripheral blood mononuclear cells were treated in vitro with the BDCA2 antibody-drug conjugate at different concentrations, and IFNα and TNFα produced by the peripheral blood mononuclear cells were quantitatively detected after the stimulation of 5 μM R848 for a certain period of time. The in vitro activity of the ligand-drug conjugates was evaluated based on the extent of cytokine inhibition.
The cryopreserved human peripheral blood mononuclear cells were thawed, resuspended in a complete culture medium and counted, and the cell suspension was adjusted to 2.5×10^6 cells/mL with the culture medium and cultured overnight. […] The supernatant was collected, and the TNF-α and IFN-α concentration levels in the supernatant were detected using an ELISA kit. Dose-response data were fitted to an S-shaped curve using non-linear regression, and IC50 values were calculated.
TNF-α concentration assay was performed using a Dakewe TNF-α ELISA kit (Cat. No. 1117202). […] The reading at wavelength 450 nm was detected using an M2e instrument within 10 min after the termination. […]

[3] = system: cynomolgus monkey whole blood stimulated with CpG-A; assay: TNF-α after in vitro CpG-A stimulation of whole blood of dosed cynomolgus monkeys; assay type: in vivo; design: average expression level of TNFα on days 0-33 after administration: unit not given here; settings: 10 mg/kg i.v.
Experimental: Cytokine expression was detected by whole blood stimulation in vitro.
The cells were cultured at 37° C. for 18 h, and the supernatant was collected. The TNF-α and IFN-α concentration levels in the supernatant were detected using an ELISA kit.
TNF-α concentration assay was performed using a R&D Primate TNF-α DuoSet ELISA kit (Cat. No. DY1070). 50 μL of serially diluted cytokine standard was added to each standard well, 50 μL of test sample was added to each sample well, and 50 μL of PBS was added to each blank control well. The cells were incubated at 37° C. for 2 h. The plate was washed 3 times: the liquid in each well was removed, and 300 μL of 1× PBST buffer working solution was added to each well; and after 1 minute of residence, the liquid in each well was discarded. 100 μL of detection antibody working solution was added to each well, and the cells were incubated at 37° C. for 1 h. […] The reading at wavelength 450 nm was detected using a Molecular device spectra max plus384 instrument within 10 min after the reaction was stopped.
Evaluation criteria in FIGS. 12-13: the average expression level changes of IFNα/TNFα were evaluated after in vitro stimulation of the whole blood with CpGA at 200 μg/mL on days 0-33 after administration. […]

B1: Hu033-03-ADC (conjugate)
heavy: EVQLVESGGGLVKPGGSLRLSCAASGFTFSSYGMSWVRQAPGKGLEWVSTISSGDSYTYYPDSVKGRFTISRDNAKNSLYLQMNSLRAEDTAVYYCARQIYYDYAYYFDFWGQGTTVTVSS[human IgG1 constant region not spelt out]
light: DIVLTQSPASLAVSPGQRATITCRASESVSFRTSHLMHWYQQKPGQPPKLLIYGASNLESGVPARFSGSGSETDFTLTINPVEAEDTANYFCQQSIEDPPTFGGGTKVEIKRTVAAPSVFIFPPSDEQLKSGTASVVCLLNNFYPREAKVQWKVDNALQSGNSQESVTEQDSKDSTYSLSSTLTLSKADYEKHKVYACEVTHQGLSSPVTKSFNRGEC
**Q.** Which results are given for B1?
**A.** BDCA2 level on the surface of pDCs in the blood compared to the blank control [1]: reduced; pDC percentage in the blood compared to the blank control [1]: no significant change; safety [1]: good safety; inhibitory effect on TNF-α secretion [2]: stronger ability to inhibit TNF-α secretion; TNFα expression level compared to the blank control group ([3]; CpGA-stimulated whole blood): significantly reduced; average expression level of TNFα on days 0-33 after administration ([3]; whole blood stimulated with CpGA 200 μg/mL, before administration 5515 (FIG. 13b) and 3977 (FIG. 13c)): 4131
